Test results as given in publication PMC4336329 (PLoS ONE, 2015).
Hit rate of the full screen: of about 310,000 compounds, about 2,200 (0.71%) showed an effect of 50% or more. Effects have a minus sign here. The list shows a part of the results.

Target: human ether-à-go-go-related gene (hERG) potassium channel (human, UniProt Q12809)
Experiment: primary screen, population patch clamp on CHO cells stably expressing hERG

Sequence of human ether-à-go-go-related gene (hERG) potassium channel (Q12809 whole entry, looked up): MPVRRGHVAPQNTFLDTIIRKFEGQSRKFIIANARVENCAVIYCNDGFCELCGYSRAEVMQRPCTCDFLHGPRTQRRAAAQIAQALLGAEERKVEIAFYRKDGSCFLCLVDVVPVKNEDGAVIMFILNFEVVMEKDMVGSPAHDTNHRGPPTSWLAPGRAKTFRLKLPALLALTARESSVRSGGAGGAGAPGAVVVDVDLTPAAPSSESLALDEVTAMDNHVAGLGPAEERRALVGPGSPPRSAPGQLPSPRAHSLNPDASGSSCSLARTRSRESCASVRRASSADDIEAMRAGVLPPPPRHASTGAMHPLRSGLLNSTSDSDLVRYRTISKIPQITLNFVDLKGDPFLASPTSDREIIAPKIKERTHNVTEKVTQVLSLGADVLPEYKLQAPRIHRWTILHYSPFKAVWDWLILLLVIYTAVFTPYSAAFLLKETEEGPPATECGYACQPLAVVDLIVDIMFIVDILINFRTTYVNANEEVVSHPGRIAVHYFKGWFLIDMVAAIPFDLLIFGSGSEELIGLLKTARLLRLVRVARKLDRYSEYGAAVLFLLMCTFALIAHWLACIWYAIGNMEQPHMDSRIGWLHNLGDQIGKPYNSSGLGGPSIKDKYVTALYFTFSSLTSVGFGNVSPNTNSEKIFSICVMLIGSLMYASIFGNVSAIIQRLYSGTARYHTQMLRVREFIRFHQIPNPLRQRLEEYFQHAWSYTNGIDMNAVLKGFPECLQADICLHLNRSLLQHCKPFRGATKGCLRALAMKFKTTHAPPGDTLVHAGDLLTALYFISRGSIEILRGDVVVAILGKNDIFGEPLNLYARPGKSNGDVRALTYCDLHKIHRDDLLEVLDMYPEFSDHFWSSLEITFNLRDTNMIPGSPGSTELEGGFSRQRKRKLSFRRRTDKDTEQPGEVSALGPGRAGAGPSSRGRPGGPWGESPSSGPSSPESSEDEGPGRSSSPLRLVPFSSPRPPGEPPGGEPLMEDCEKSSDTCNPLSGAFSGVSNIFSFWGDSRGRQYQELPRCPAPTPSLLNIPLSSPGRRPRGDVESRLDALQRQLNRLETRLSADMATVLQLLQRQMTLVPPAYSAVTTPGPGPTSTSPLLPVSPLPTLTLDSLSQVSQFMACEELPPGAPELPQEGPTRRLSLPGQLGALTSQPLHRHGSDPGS

Structure (SMILES) | hERG current change (%, negative = inhibition) at 1uM [%]
Cc1cc(C)c2c(=O)n(-c3ccccc3)[nH]c2n1 | 11.3
CC(C)(C)C1(O)CC(C(F)(F)F)=NN1C(=O)CCc1ccccc1 (centres unmarked) | -18.1
NC(=O)COC(=O)c1ccc(Cl)c(S(=O)(=O)N(Cc2ccccc2)c2ccc(Cl)cc2)c1 | 7.96
C=CCN1CC2(c3ccccc3)CN(CC=C)CC(c3ccccc3)(C1)C2=O | 2.26
O=C(c1cc(COc2ccc(F)cc2F)on1)N1CCCC(c2ccccc2)C1 (centres unmarked) | 10.1
Cc1cc(C)c2oc(=O)cc(CN3CCOCC3)c2c1 | 12.7
CC(NS(C)(=O)=O)C(c1cccs1)N1CCN(C)CC1 (centres unmarked) | 13.4
CC1=C(C(=O)Nc2ccccc2C(F)(F)F)C(c2sccc2C)NC(=S)N1 (centres unmarked) | 18.1
Cc1cc(C)cc(N2CC(O)=C(c3nc4ccccc4c(=O)[nH]3)C2=N)c1 | 12
O=C(Nc1ccc(S(=O)(=O)N2CCCC2)cc1)c1cncc(Br)c1 | 3.3
CSc1ccc(/C=C/c2ccc3cccc(O)c3n2)cc1 | 11.3
CC(C)n1nccc1N(Cc1ccc(Br)cc1)S(=O)(=O)c1ccccc1 | -3.38
COc1ccc(C2/C(=C(/O)c3ccccc3)C(=O)C(=O)N2C)cc1 (centres unmarked) | 10.6
C=Cc1ccc(CN2CCCN(Cc3ccc(F)cc3)S2(=O)=O)cc1 | 3.19
CCc1cc2c(CN3CCN(Cc4ccccc4)CC3)cc(=O)oc2cc1O | 12.4
N=C1C(c2ccc(Br)cc2)=C(O)C2CCc3ccccc3N12 (centres unmarked) | -1.51
Cc1ccc(CN2C(=O)c3ccccc3C2C(=O)NCc2cccnc2)cc1 (centres unmarked) | 4.36
COc1ccc(-c2cc3c(=O)n(CC(=O)NCc4ccc(Cl)cc4)ncn3n2)cc1 | 18.6
O=C(CSc1ccc2nnc(-c3ccncc3)n2n1)Nc1ccc2c(c1)OCCO2 | 6.23
O=C(ON=C1CCN(S(=O)(=O)c2ccccc2)CC1)c1ccc(Cl)cc1 | 11.4
CCOC(=O)C1CCN(C(=O)C2CCCN(c3ncnc4c3nc3n4CCCCC3)C2)CC1 (centres unmarked) | 1.8
NC(=O)C1CCN(C(=O)CCSc2ccc(Cl)cc2)CC1 | 3.66

Structure (SMILES) | hERG current change (%, negative = inhibition) at 1uM [%]
O=[N+]([O-])c1ccccc1/C=C/CN1CCC(O)CC1 | 17
Cc1cccc2cc(CN(Cc3nnnn3C3CCCC3)C3CCCCC3)c(=O)[nH]c12 | 2.98
O=C(O)c1cccc(NS(=O)(=O)c2cccc3nsnc23)c1 | 11.1
C/C(Nc1ccc(Cl)cc1)=C(/C#N)C(N)=O | 16.5
COc1ccccc1OCc1ccc(C(=O)Nc2ccccc2F)cc1 | 3.8
CCOc1cc(C(=O)NC2CC(C)(C)NC(C)(C)C2)cc(OCC)c1OCC | 13.6
COc1ccc(C(=O)COC(=O)c2c(-c3ccccc3)noc2C)c(OC)c1 | 17.4
COC(=O)C1=C(c2ccc(S(C)(=O)=O)cc2)C[C@@H]2CC[C@H]1N2C(=O)NCc1ccco1 | 10.6
C/C(=N\O)C(=O)Nc1ccccc1 | 5.51
O=C(Nc1ccc2c(c1)OCCO2)c1cc(-c2ccccn2)nc2ccc(Br)cc12 | 11
CCn1c(SCC(=O)OC)nnc1-c1c[nH]c2ccccc12 | 4.76
CCOC(=O)CNC(=S)N1CCn2c(nc3ccccc32)C1 | -0.114
CCCN(Cc1ccccc1)C(=S)Nc1cccc(C)c1C | 21.4
COc1cc(/C=C(\C#N)c2nc3ccc(C)cc3[nH]2)c([N+](=O)[O-])cc1OC | 13.3
O=C(c1ccccc1F)N1C[C@H]2C[C@@H](C1)c1cccc(=O)n1C2 | 13.3
COc1ccc(OC)c(NC(=S)N2CCN(C/C=C/c3ccccc3)CC2)c1 | -6.57
O=S1(=O)c2ccccc2N=NN1Cc1cc(Cl)cc(Cl)c1 | 2.05
O=C(Nc1ccccc1)N1CCCN(c2ccc(C(F)(F)F)cc2[N+](=O)[O-])CC1 | -1.68
O=C(c1sc2cccc(Cl)c2c1Cl)N1CCN(CCc2ccccn2)CC1 | 0.613
Cn1c(SCC(=O)NCc2ccc3c(c2)OCO3)ncc(C(=O)Nc2ccc(F)cc2)c1=O | -0.579
Cc1ccc(OP(=O)(NC(C)c2ccccc2)Oc2ccc(C)cc2)cc1 (centres unmarked) | 15.5
O=C(NCCCNC(=O)c1ccco1)c1ccc(Cl)c(Cl)c1 | 5.08

Structure (SMILES) | hERG current change (%, negative = inhibition) at 1uM [%]
CCCS(=O)(=O)N1CCCC(C(=O)NCCN2CCC(Cc3ccccc3)CC2)C1 (centres unmarked) | -31
Cc1n[nH]c(=O)c2c(NC(=O)COC(=O)COc3cccc(Br)c3)oc(C)c12 | -6.05
COc1cc(OC)cc(C(=O)NCC(=O)NC(C)c2ccccc2)c1 (centres unmarked) | 13.1
COC(=O)C(C)NC(=O)COc1ccc2ccccc2c1 (centres unmarked) | 4.14
Cn1cnc(S(=O)(=O)Nc2ccc(C(F)(F)F)cc2)c1 | 1.15
COc1cc(C)c(C(=O)CSc2nnc(CNC(=O)c3ccco3)n2C)cc1C | 8.28
CCN(Cc1ccccc1)C(=S)Nc1cc(C(=O)OC)ccc1C(=O)OC | 10.2
COc1cc(C(=O)NCCOc2cc(C)cc(C)c2)c(Br)c(OC)c1OC | -0.854
O=C1Nc2ccccc2/C1=C/c1cccnc1 | 12.5
CS(=O)(=O)O.Cc1cccc2c1Sc1ccc(Cl)cc1CC2N1CCNCC1.O (centres unmarked) | 16.4
COc1cc(C)c2occ(/C(C)=N\O)c2c1 | -3.29
COc1ccc(CC2(CO)CCN(C(=O)NCc3ccccc3)CC2)cc1 | 10.4
CCCOc1ccc(N2CC(C(=O)Nc3ccccc3C(=O)NCc3ccco3)CC2=O)cc1 (centres unmarked) | -29.5
Cc1cc(C)nc(NC(=O)c2ccc3c(c2)OCO3)c1 | 20.6
O=C(CCCCCN1C(=O)[C@@H]2Cc3ccccc3CN2C1=O)Nc1cccc(F)c1 | -24.6
Cc1nn(Cc2ccc(Cl)cc2)c(C)c1NC(=O)c1ccc([N+](=O)[O-])cc1 | -34.7
COc1cccc(OC)c1C(=O)Nc1ccc(C(=O)NCc2ccccc2)cc1 | 4.61
COc1ccc(C(=O)Nc2ccc3c(c2)n(C)c(=O)n3C)cc1OC | 15.9
CC(C)NC(=O)C1CCN(C(=O)N(C)C)CC1 | 0.481
C[C@@]12CCC3[C@@](CCC4[C@@]3(C)CCC[C@@]4(C)C(=O)NCc3ccccc3)(CC1=O)C2 (some centres unmarked) | 0.578
Clc1ccc(-c2nnc(SCc3nc(-c4ccccc4)no3)o2)cc1 | 9.75
O=C(COC(=O)CCCNC(=O)c1ccc(Cl)cc1)Nc1cc(Cl)ccc1Cl | 19.7

Structure (SMILES) | hERG current change (%, negative = inhibition) at 1uM [%]
CCOC(=O)N1CCN(C(=O)CCCN2C(=O)CSc3nc(C)cc(C)c32)CC1 | 9.76
Cc1csc2ncnc(NCCc3ccccn3)c12 | 1.77
COc1cccc(CNS(=O)(=O)c2cc3c(cc2Cl)NC(=O)CO3)c1 | -3.15
O=C(CN1C(=O)c2cccnc2Oc2ccc(Cl)cc21)NC1CCCC1 | 8.97
O=C(CSCc1c(Cl)cccc1Cl)Nc1ccc2c(c1)OCO2 | 8.38
CC(OC(=O)c1ccc(Cl)c(S(N)(=O)=O)c1)C(=O)NCC1CCCCC1 (centres unmarked) | 11.9
CCOc1ccc2ccccc2c1CNCCN1CCOCC1.Cl | -5.74
COC(=O)c1[nH]c2cccc(OC)c2c1NC(=O)CN1CCOCC1 | 4.75
CCOC(=O)c1sc(NC(=O)CSc2nnc(-c3ccco3)o2)c(C(=O)OCC)c1C | 6.1
CCCCn1c(N)c(N(CCOC)C(=O)c2cccc(S(=O)(=O)N(C)c3ccc(C)cc3)c2)c(=O)[nH]c1=O | 1.27
CNC(=O)c1c(NC(=O)c2ccc(S(=O)(=O)N3CCCCC3C)cc2)sc2c1CCN(C)C2 (centres unmarked) | 9.52
CCCCN(CC)CCCNC(=O)CC1Oc2ccccc2NC1=O (centres unmarked) | -7.18
O=C(CC1C(=O)NCCN1C(=S)Nc1ccccc1)Nc1ccc(F)cc1 (centres unmarked) | -4.3
Cl.O=C(COc1ccc(Br)cc1CNCCc1ccccc1)NCc1ccccc1 | -11.5
O=C(COc1ccccc1)Nc1ncc2c(n1)CCCC2=O | 10.8
CS(=O)(=O)C1=NSC2=NC(=O)/C(=C\c3ccc(OC(=O)c4ccco4)c(Br)c3)C(=N)N21 | 12.2
CC(=O)N1CCOc2ccc(S(=O)(=O)N3C(C)CCCC3C)cc21 (centres unmarked) | 11
Cc1cc(-c2csc(NC(=O)c3ccc(C#N)cc3)n2)c(C)n1Cc1ccccc1 | 11.6
CCOC(=O)C(=O)N(CC)C1CCS(=O)(=O)C1 (centres unmarked) | 8.82
Cc1c2cnn(-c3ccccc3)c(=O)c2c(C)n1CCCC(=O)NCCN1CCN(C)CC1 | 9.84
